The record followed here is PMC4654539.

Chains of the proteins cited; added tags and fusions are not shown. Lines headed by an entry give the natural chain unless they say otherwise; changes in a name come on top.
UniProt P00167: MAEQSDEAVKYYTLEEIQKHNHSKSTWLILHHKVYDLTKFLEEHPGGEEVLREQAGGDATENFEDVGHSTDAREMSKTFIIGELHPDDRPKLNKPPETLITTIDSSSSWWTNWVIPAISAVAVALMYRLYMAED

No constants are given. Whether binding was seen depends on the method and setting. For part of these data: In cells and extracts the contact can be indirect. Some results given as binding are weak or reduced against the parent protein; the word gives no strength. For part of these data: Tags and fused reporters may be left off the sequences shown.

The target of experiment [1] is T1, recombinant cytochrome P450c17, purified (human) (UniProt P05093).
T1 sequence: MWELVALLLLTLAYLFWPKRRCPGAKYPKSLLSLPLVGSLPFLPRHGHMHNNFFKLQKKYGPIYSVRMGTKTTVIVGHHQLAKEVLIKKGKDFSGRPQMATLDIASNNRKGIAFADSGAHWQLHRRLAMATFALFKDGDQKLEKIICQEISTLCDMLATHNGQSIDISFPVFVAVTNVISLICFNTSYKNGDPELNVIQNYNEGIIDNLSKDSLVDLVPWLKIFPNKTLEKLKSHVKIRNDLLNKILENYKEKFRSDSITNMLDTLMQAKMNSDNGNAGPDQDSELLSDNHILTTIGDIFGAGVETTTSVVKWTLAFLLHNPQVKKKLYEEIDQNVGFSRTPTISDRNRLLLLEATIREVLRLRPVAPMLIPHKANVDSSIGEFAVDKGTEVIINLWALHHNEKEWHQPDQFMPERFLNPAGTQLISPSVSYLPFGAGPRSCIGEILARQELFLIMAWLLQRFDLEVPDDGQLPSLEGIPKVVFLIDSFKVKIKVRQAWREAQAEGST
Put plainly: d.c. and Fourier transformed a.c. cyclic voltammetry; cyt b5 adsorbed on a carbon nanotube electrode pre-modified with P450c17; deoxygenated 0.20 M NaCl + 0.02 M (K2HPO4+KH2PO4), pH 7.0; 23 ± 1°C; both purified.

The target of experiment [2] is T1, recombinant cytochrome P450c17, purified (human). Put plainly: quartz crystal microbalance; mixtures of 20 nM P450c17 + 20 nM CPR + 20 or 100 nM cyt b5 deposited on a DMPC-cholesterol membrane on a Au-coated quartz crystal; 295 K; 0.10 M NaCl + 0.02 M (K2HPO4+KH2PO4), pH 6.9; both purified.
The target of experiment [3] is T2, human cytochrome P450c17 fused to a fluorescent protein at the C-terminus (human) (UniProt P05093).
T2 sequence: T1 sequence
The experiment can be described thus: FRET or BRET; living HEK293 or H295 cells co-transfected with CFP and YFP fusion constructs; FRET ratio from the enhanced acceptor emission, a ratio >1.0 indicates close association.

Consider “E48G/E49G human cytochrome b5 double mutant, purified (from UniProt P00167 1-134)”, for which the binding result in experiment [1] was “no binding”; in experiment [2], “no binding (tested: 20 nM and 100 nM E48G/E49G cyt b5)”.

Turning to “human cytochrome b5 fused to a fluorescent protein (from UniProt P00167 1-134)”, the binding entry in experiment [3] is recorded as “binds”.

“wild type human cytochrome b5, purified (from UniProt P00167 1-134)”: the binding entry in experiment [1] and in experiment [2] was “binds” in each case.

B1: cytochrome P450 aromatase fused to eCFP (enzyme, UniProt P11511 1-503)
chain: MVLEMLNPIHYNITSIVPEAMPAATMPVLLLTGLFLLVWNYEGTSSIPGPGYCMGIGPLISHGRFLWMGIGSACNYYNRVYGEFMRVWISGEETLIISKSSSMFHIMKHNHYSSRFGSKLGLQCIGMHEKGIIFNNNPELWKTTRPFFMKALSGPGLVRMVTVCAESLKTHLDRLEEVTNESGYVDVLTLLRRVMLDTSNTLFLRIPLDESAIVVKIQGYFDAWQALLIKPDIFFKISWLYKKYEKSVKDLKDAIEVLIAEKRRRISTEEKLEECMDFATELILAEKRGDLTRENVNQCILEMLIAAPDTMSVSLFFMLFLIAKHPNVEEAIIKEIQTVIGERDIKIDDIQKLKVMENFIYESMRYQPVVDLVMRKALEDDVIDGYPVKKGTNIILNIGRMHRLEFFPKPNEFTLENFAKNVPYRYFQPFGFGPRGCAGKYIAMVMMKAILVTLLRRFHVKTLQGQCVESIQKIHDLSLHPDETKNMLEMIFTPRNSDRCLEH
Take B1: in experiment [3], the binding entry is on record as “no binding”.
